# Results reported in paper PMC4336329 (PLoS ONE, 2015).
# Among all 310,000 compounds or so, about 2,200 (0.71%) showed an effect of 50% or more. Effects have a minus sign here. Some of the results follow.
# Molecular target: human ether-à-go-go-related gene (hERG) potassium channel (human, UniProt Q12809)
# Experiment: primary screen, population patch clamp on CHO cells stably expressing hERG
# Chain of human ether-à-go-go-related gene (hERG) potassium channel (Q12809 whole entry, looked up): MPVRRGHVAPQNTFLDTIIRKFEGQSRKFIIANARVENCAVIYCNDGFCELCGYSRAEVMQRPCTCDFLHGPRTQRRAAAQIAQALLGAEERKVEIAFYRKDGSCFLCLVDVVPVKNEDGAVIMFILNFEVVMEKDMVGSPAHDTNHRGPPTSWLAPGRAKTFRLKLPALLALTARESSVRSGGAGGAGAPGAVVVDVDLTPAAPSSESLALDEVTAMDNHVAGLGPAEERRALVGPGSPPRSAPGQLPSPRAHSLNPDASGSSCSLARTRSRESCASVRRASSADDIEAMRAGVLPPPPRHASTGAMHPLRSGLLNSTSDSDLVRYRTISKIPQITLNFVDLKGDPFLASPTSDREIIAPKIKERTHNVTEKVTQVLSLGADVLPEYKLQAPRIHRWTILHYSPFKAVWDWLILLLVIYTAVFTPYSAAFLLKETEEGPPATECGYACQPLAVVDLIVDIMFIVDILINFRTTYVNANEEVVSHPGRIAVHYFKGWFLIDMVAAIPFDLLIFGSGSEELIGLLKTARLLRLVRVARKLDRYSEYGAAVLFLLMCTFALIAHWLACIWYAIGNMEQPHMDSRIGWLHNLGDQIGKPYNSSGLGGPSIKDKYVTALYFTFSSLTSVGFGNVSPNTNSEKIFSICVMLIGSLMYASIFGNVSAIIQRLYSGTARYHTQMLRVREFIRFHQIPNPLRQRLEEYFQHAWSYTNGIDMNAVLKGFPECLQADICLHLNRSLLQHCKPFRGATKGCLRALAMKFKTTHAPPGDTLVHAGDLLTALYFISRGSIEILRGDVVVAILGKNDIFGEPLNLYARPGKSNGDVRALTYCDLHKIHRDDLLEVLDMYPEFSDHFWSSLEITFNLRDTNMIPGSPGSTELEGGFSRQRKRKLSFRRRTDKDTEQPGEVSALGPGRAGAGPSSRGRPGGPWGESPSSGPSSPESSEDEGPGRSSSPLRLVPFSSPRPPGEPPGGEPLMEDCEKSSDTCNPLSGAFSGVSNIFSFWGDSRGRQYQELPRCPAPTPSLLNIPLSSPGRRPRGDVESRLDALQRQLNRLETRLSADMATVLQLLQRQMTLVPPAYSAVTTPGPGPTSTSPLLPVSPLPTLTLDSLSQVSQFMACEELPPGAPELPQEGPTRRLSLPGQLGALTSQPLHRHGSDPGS
row,SMILES,"hERG current change (%, negative = inhibition) at 1uM [%]"
1,Cc1ccc(C)c(NC(=O)Cn2nc(C)c3ccccc3c2=O)c1,5.33
2,C=C(C)CSc1[nH]c(=O)cc(C)c1C#N,7.6
3,Cc1ccc(C2=Nc3ccccc3N(C(=O)c3ccccc3)C(C)C2)cc1 (centres unmarked),14.9
4,O=C(Nc1ccccc1)C1CC(=O)n2ncnc2N1 (centres unmarked),7.18
5,O=c1ccc(-c2ccc(S(=O)(=O)Nc3ccccc3)o2)n[nH]1,12
6,O=C(O)c1ccc2c(c1)C(=O)N(NC(=O)c1ccccc1)C2=O,11.4
7,COc1ccccc1NS(=O)(=O)c1ccc2oc(SC3CCOC3=O)nc2c1 (centres unmarked),9.89
8,Cc1cc(CSc2nc(C)cc(=O)[nH]2)c2ncccc2c1,6.69
9,CCOc1ccccc1NC(=O)NC(C)c1ccc2c(c1)OCO2 (centres unmarked),1.75
10,O=C(C1CCC(CNc2c(N3CCCC3)c(=O)c2=O)CC1)N1CCc2ccccc21 (centres unmarked),12.2
11,COc1ccccc1Nc1nc(C)cs1,0.343
12,CCN(C(=O)CSc1nnnn1C)c1c(N)n(Cc2ccccc2)c(=O)[nH]c1=O,-0.914
13,C#CC[N+]1(CC#Cc2cccc3ccccc23)CCOCC1.[Br-],8.42
14,CC1=NN(c2ccccc2)C(=O)/C1=C/C=C/C=C/N(C)C,13.5
15,O=C(CCn1nc(-c2ccc(Cl)cc2)ccc1=O)NCc1ccccn1,-3.96
16,CCOc1ccc(CCNC(=O)CN(C)S(=O)(=O)c2cccc3nsnc23)cc1OCC,9.05
17,Cc1cc(NC(=O)CSc2ccc3ccccc3c2)no1,-26.4
18,CC(=O)c1ccc(NC(=O)CSc2nnc(-c3ccco3)c(-c3ccco3)n2)cc1,2.75
19,Cc1ccccc1C(=O)Nc1nnc(-c2cccnc2)o1,14.3

row,SMILES,"hERG current change (%, negative = inhibition) at 1uM [%]"
1,COC(=O)C1=C(CCc2ccccc2)NC(=O)NC1c1ccc(Br)cc1 (centres unmarked),-8.25
2,Cc1ccc2c(c1)c(C1=c3ccccc3=NC1=O)c(O)n2C,18.7
3,COc1ccc(C(CNC(=O)c2cc(C)oc2C)N2CCOCC2)cc1 (centres unmarked),6.58
4,O=C(NC1C2CC3CC(C2)CC1C3)C1CCCCC1 (centres unmarked),13.9
5,CNC(CC(C)C)C(=O)NC1C(=O)NC(CC(N)=O)C(=O)NC2C(=O)NC3C(=O)NC(C(=O)NC(C(=O)O)c4cc(O)cc(O)c4-c4cc3ccc4O)C(O)c3ccc(c(Cl)c3)Oc3cc2cc(c3OC2OC(CO)C(O)C(O)C2OC2CC(C)(N)C(O)C(C)O2)Oc2ccc(cc2Cl)C1O.Cl.O (centres unmarked),4.85
6,Cc1cc(-n2ccc(=O)[nH]c2=O)nc(-c2ccccc2)n1,10.2
7,O=S(=O)(NCc1ccc(Cl)cc1Cl)c1cccs1,8.5
8,COc1cc(NC(=O)c2ccc(Br)o2)ccc1NC(=O)C(C)C,-9.33
9,Cc1ccc(OCC(=O)N2CCN(Cc3cccnc3)CC2)cc1.O=C(O)C(=O)O,0.195
10,Cc1ccc(Cl)c(N/C=C/C(=O)c2ccccc2)c1,14.5
11,CC1=C(C(=O)OCc2ccccc2)C(c2ccccc2OS(=O)(=O)c2ccccc2[N+](=O)[O-])NC(=O)N1CCCC(=O)O (centres unmarked),11.1
12,COc1ccccc1C(=O)Nc1cccc(SC)c1,-0.827
13,CCCCN(C(=O)CC1CCCC1)c1c(N)n(CCCC)c(=O)[nH]c1=O,2
14,COc1ccc(-n2nc(C(=O)N(C)C)nc2-c2ccccc2)cc1,10.5
15,Cc1ccc(C(=O)NC(=S)Nc2ccc(N3CCN(C(=O)c4ccco4)CC3)cc2)cc1,17.7
16,CN1CC(=O)NC1=NC(=O)c1ccc(Cl)c(S(=O)(=O)N2CCCCCC2)c1,6.07
17,COc1cc(/C=C2/NC(=O)N(Cc3ccccc3F)C2=O)ccc1O,6.87
18,CN(C)Cc1c(O)ccc2c(=O)c(-c3ccccc3)c(C(F)(F)F)oc12,11
19,COc1ccc(N2C(=NC(=O)C(C)Oc3ccccc3)SC3CS(=O)(=O)CC32)cc1 (centres unmarked),0.401

row,SMILES,"hERG current change (%, negative = inhibition) at 1uM [%]"
1,O=[N+]([O-])c1cc(C(F)(F)F)ccc1Sc1ccc2ccccc2n1,7.15
2,Cc1cc(C(=O)O/N=C(\N)c2ccc(C(C)(C)C)cc2)no1,15.6
3,CCCCCCn1c(SCC(=O)OC)nc2c1c(=O)[nH]c(=O)n2C,-45.2
4,CCN(CC)C(=O)Cn1cc(C(=O)C(=O)N2CCN(c3ccc(OC)cc3)CC2)c2ccccc21,23.7
5,CC(=O)CCc1ccccc1,11.8
6,O=c1[nH]cnc2cc(-c3ccc(Br)cc3)sc12,16.6
7,CCCOc1ccc(Cn2c(=O)oc3ccc(C)cc32)cc1OC,10.2
8,COc1ccc(CN2C(=O)CSCC2=O)cc1OC,8.91
9,Cc1nc2ccccn2c1C(=O)NNC(=O)Nc1ccccc1,12.2
10,CCc1nnc(NC(=O)CSc2nc(C)c3c(c2C#N)CCCC3)s1,3.44
11,C/C(CC(=O)NCc1ccccc1)=N\NC(=O)c1cnccn1,1.56
12,CN1CCC(=O)N(CCN=[N+]=[N-])CC1,13.6
13,O=C(COc1coc(CN2CCN(c3ccc(F)cc3)CC2)cc1=O)NCC1CCCO1 (centres unmarked),8.82
14,CCN1CCN(C(=O)Cn2nc(-c3ccc(Cl)cc3)ccc2=O)CC1,10.4
15,CN(CC(=O)Nc1ccccc1C(=O)NC1CC1)Cc1ccc(Cl)s1,-3.75
16,COc1cc(C=O)c(Cl)cc1OCC(N)=O,5.81
17,COc1ccc(S(=O)(=O)N2CCC(C(=O)N3CCCC3)CC2)cc1,-0.331
18,CCc1cccc2c(C=C(C#N)C#N)cn(CC(=O)N3CCCCCC3)c12,9.65
